This is an account of results in the supplement of paper PMC9174493.

Experiment [1] concerns A549-Dual. The experiment is described as follows: NF-kB reporter (SEAP) activity, viability-corrected, relative to vehicle (fold change vs vehicle); higher = more activation of STING-IRF / NF-kB immune response reporter.
For experiment [2], the system named is A549-Dual. The experiment is described as follows: ISRE reporter (Lucia luciferase) activity, viability-corrected, relative to vehicle (fold change vs vehicle); higher = more activation of STING-IRF / NF-kB immune response reporter.

This is one part of the list. Single values of this set are uncertain. Values with irradiation are relative to irradiated vehicle.
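Wherever NF-kB reporter (SEAP) activity, viability-corrected, relative to vehicle is given: viability correction based on the alamar blue assay, with concentrations leaving 10% survival or less dropped.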

As for `C#Cc1cccc(Nc2ncnc3cc(OCCOC)c(OCCOC)cc23)c1` [Erlotinib], the NF-kB reporter in the experiment on A549-Dual [1] (0.1 µM, irradiation: 8 Gy/4 fr) came to 1; in the experiment on A549-Dual [1] (0.1 µM, irradiation: none), 0.915; in the experiment on A549-Dual [1] (0.3 µM, irradiation: 8 Gy/4 fr), 0.868; with A549-Dual [1] (0.3 µM, irradiation: none) it was 0.91; in the experiment on A549-Dual [1] (1 µM, irradiation: 8 Gy/4 fr) it was 1.03; in the experiment on A549-Dual [1] (1 µM, irradiation: none), 1.08. Besides, the NF-kB reporter with A549-Dual [1] (3 µM, irradiation: 8 Gy/4 fr) is 1.01; with A549-Dual [1] (3 µM, irradiation: none) it was 1.09; with A549-Dual [1] (10 µM, irradiation: 8 Gy/4 fr), 1.04; with A549-Dual [1] (10 µM, irradiation: none), 0.948. Moreover, the ISRE reporter in the experiment on A549-Dual [2] (0.1 µM, irradiation: 8 Gy/4 fr) was 0.962; in the experiment with A549-Dual [2] (0.1 µM, irradiation: none) it was 1.05; in the experiment on A549-Dual [2] (0.3 µM, irradiation: 8 Gy/4 fr), 0.947; with A549-Dual [2] (0.3 µM, irradiation: none) it was 0.808; with A549-Dual [2] (1 µM, irradiation: 8 Gy/4 fr), 0.951; in the experiment on A549-Dual [2] (1 µM, irradiation: none) it was 0.751. Besides, the ISRE reporter is 1.06 in the experiment with A549-Dual [2] (3 µM, irradiation: 8 Gy/4 fr); 0.732 in the experiment with A549-Dual [2] (3 µM, irradiation: none); 0.879 in the experiment on A549-Dual [2] (10 µM, irradiation: 8 Gy/4 fr); 0.713 in the experiment on A549-Dual [2] (10 µM, irradiation: none).
For `COC1(NC(=O)Cc2cccs2)C(=O)N2C(C(=O)O)=C(COC(N)=O)CSC21` (centres undefined) [Cefoxitin], the NF-kB reporter worked out at 0.685 in the experiment on A549-Dual [1] (10 µM, irradiation: 8 Gy/4 fr) and 0.965 in the experiment on A549-Dual [1] (10 µM, irradiation: none). The ISRE reporter in the experiment with A549-Dual [2] (10 µM, irradiation: 8 Gy/4 fr) stood at 0.725; in the experiment with A549-Dual [2] (10 µM, irradiation: none), 0.829.
For the molecule `CCCCCCCCc1ccc(CCC(N)(CO)CO)cc1` [Fingolimod], the NF-kB reporter stood at 0.687 in the experiment on A549-Dual [1] (0.1 µM, irradiation: 8 Gy/4 fr); 0.48 in the experiment on A549-Dual [1] (0.1 µM, irradiation: none); 0.745 in the experiment with A549-Dual [1] (0.3 µM, irradiation: 8 Gy/4 fr); 0.467 with A549-Dual [1] (0.3 µM, irradiation: none); 0.659 with A549-Dual [1] (1 µM, irradiation: 8 Gy/4 fr); 0.633 in the experiment with A549-Dual [1] (1 µM, irradiation: none). For the same molecule, the NF-kB reporter in the experiment with A549-Dual [1] (3 µM, irradiation: 8 Gy/4 fr) was found to be 0.796; with A549-Dual [1] (3 µM, irradiation: none), 0.716. In addition, the ISRE reporter with A549-Dual [2] (0.1 µM, irradiation: 8 Gy/4 fr) is 0.613; in the experiment with A549-Dual [2] (0.1 µM, irradiation: none), 0.546; in the experiment on A549-Dual [2] (0.3 µM, irradiation: 8 Gy/4 fr), 0.616; in the experiment with A549-Dual [2] (0.3 µM, irradiation: none), 0.6; with A549-Dual [2] (1 µM, irradiation: 8 Gy/4 fr), 0.608; with A549-Dual [2] (1 µM, irradiation: none) it was 0.763. In addition, the ISRE reporter in the experiment on A549-Dual [2] (3 µM, irradiation: 8 Gy/4 fr) was 0.832; with A549-Dual [2] (3 µM, irradiation: none), 0.706.
Consider `CC1=Nc2ccc(Cl)cc2S(=O)(=O)N1` [Diazoxide], for which the NF-kB reporter in the experiment with A549-Dual [1] (10 µM, irradiation: 8 Gy/4 fr) came to 0.846; in the experiment with A549-Dual [1] (10 µM, irradiation: none), 0.892. The ISRE reporter stood at 0.688 with A549-Dual [2] (10 µM, irradiation: 8 Gy/4 fr) and 0.471 with A549-Dual [2] (10 µM, irradiation: none).
For `Cc1cc2c(C(N)=O)cccc2n1-c1nc2c(c(NCc3ccccc3)n1)COCC2`, the NF-kB reporter in the experiment with A549-Dual [1] (0.1 µM, irradiation: 8 Gy/4 fr) worked out at 1.04; in the experiment with A549-Dual [1] (0.1 µM, irradiation: none) it was 0.838; in the experiment with A549-Dual [1] (0.3 µM, irradiation: 8 Gy/4 fr) it was 0.403; in the experiment with A549-Dual [1] (0.3 µM, irradiation: none), 0.986; in the experiment with A549-Dual [1] (1 µM, irradiation: 8 Gy/4 fr) it was 0.676; in the experiment with A549-Dual [1] (1 µM, irradiation: none) it was 1.6. Also, the ISRE reporter in the experiment on A549-Dual [2] (0.1 µM, irradiation: 8 Gy/4 fr) was determined as 0.778; in the experiment with A549-Dual [2] (0.1 µM, irradiation: none), 0.787; in the experiment with A549-Dual [2] (0.3 µM, irradiation: 8 Gy/4 fr) it was 0.0562; in the experiment with A549-Dual [2] (0.3 µM, irradiation: none) it was 1; in the experiment on A549-Dual [2] (1 µM, irradiation: 8 Gy/4 fr), 0.149; in the experiment with A549-Dual [2] (1 µM, irradiation: none) it was 0.441.
As for `NNC(=O)c1ccncc1` [Isoniazid], the NF-kB reporter stood at 0.64 in the experiment on A549-Dual [1] (10 µM, irradiation: 8 Gy/4 fr) and 0.848 in the experiment with A549-Dual [1] (10 µM, irradiation: none). Also, the ISRE reporter in the experiment on A549-Dual [2] (10 µM, irradiation: 8 Gy/4 fr) is 0.695; in the experiment with A549-Dual [2] (10 µM, irradiation: none), 0.651.
The like results for `Clc1ccc(CCC(Cn2ccnc2)Sc2c(Cl)cccc2Cl)cc1` (centres undefined) [Butoconazole] were, in that order, 0.425, 0.729, 0.175 and 0.29.
In the same order, the values of `CN1CCc2c(c3ccccc3n2Cc2ccccc2)C1.CN1CCc2c(c3ccccc3n2Cc2ccccc2)C1.O=S(=O)(O)c1cccc2c(S(=O)(=O)O)cccc12` [Mebhydrolin napadisylate] are 0.705, 1.61, 0.699 and 0.937.
The like results for `CCN(CC)CCNC(C(=O)OCCC(C)C)c1ccccc1.Cl.Cl` (centres undefined) [Camylofin Chlorhydrate] were, in that order, 0.823, 0.637, 0.881 and 0.545.
For the molecule `CCOC(=O)C1=C(C)NC(C)=C(C(=O)OC)C1c1cccc([N+](=O)[O-])c1` (centres undefined) [Nitrendipine], the NF-kB reporter with A549-Dual [1] (10 µM, irradiation: 8 Gy/4 fr) amounted to 0.941; in the experiment on A549-Dual [1] (10 µM, irradiation: none), 0.784. In addition, the ISRE reporter in the experiment on A549-Dual [2] (10 µM, irradiation: 8 Gy/4 fr) was 0.806; in the experiment on A549-Dual [2] (10 µM, irradiation: none), 0.787.
For the molecule `COC(=O)c1ccc(O)cc1` [Methyl 4-hydroxybenzoate], the NF-kB reporter turned out to be 0.767 in the experiment with A549-Dual [1] (10 µM, irradiation: 8 Gy/4 fr) and 0.749 in the experiment on A549-Dual [1] (10 µM, irradiation: none). Also, the ISRE reporter in the experiment on A549-Dual [2] (10 µM, irradiation: 8 Gy/4 fr) amounted to 0.697; in the experiment on A549-Dual [2] (10 µM, irradiation: none), 0.551.
For the molecule `COc1cc(Nc2ncc(F)c(Nc3ccc4c(n3)N(COP(=O)(O)O)C(=O)C(C)(C)O4)n2)cc(OC)c1OC` [Fostamatinib (R788)], the NF-kB reporter in the experiment on A549-Dual [1] (0.1 µM, irradiation: 8 Gy/4 fr) was 0.969; with A549-Dual [1] (0.1 µM, irradiation: none), 1.1; with A549-Dual [1] (0.3 µM, irradiation: 8 Gy/4 fr), 1.05; in the experiment on A549-Dual [1] (0.3 µM, irradiation: none) it was 1.21; with A549-Dual [1] (1 µM, irradiation: 8 Gy/4 fr), 1.5; with A549-Dual [1] (1 µM, irradiation: none) it was 1.01. Further, the NF-kB reporter in the experiment with A549-Dual [1] (3 µM, irradiation: 8 Gy/4 fr) worked out at 1.32. Further, the ISRE reporter in the experiment on A549-Dual [2] (0.1 µM, irradiation: 8 Gy/4 fr) was found to be 0.606; with A549-Dual [2] (0.1 µM, irradiation: none), 1.13; in the experiment with A549-Dual [2] (0.3 µM, irradiation: 8 Gy/4 fr), 0.802; in the experiment on A549-Dual [2] (0.3 µM, irradiation: none), 0.404; in the experiment on A549-Dual [2] (1 µM, irradiation: 8 Gy/4 fr) it was 0.05; in the experiment on A549-Dual [2] (1 µM, irradiation: none), 0.207. In the experiment with A549-Dual [2] (3 µM, irradiation: 8 Gy/4 fr), the ISRE reporter came out at 0.0813.
Take `CC(C)(CO)c1cc2cc(NC(=O)C3(c4ccc5c(c4)OC(F)(F)O5)CC3)c(F)cc2n1CC(O)CO` (centres undefined) [Tezacaftor?(VX-661)]: the NF-kB reporter with A549-Dual [1] (0.1 µM, irradiation: 8 Gy/4 fr) is 0.957; with A549-Dual [1] (0.1 µM, irradiation: none), 1.27; in the experiment with A549-Dual [1] (0.3 µM, irradiation: 8 Gy/4 fr), 0.913; in the experiment on A549-Dual [1] (0.3 µM, irradiation: none), 0.907; in the experiment on A549-Dual [1] (1 µM, irradiation: 8 Gy/4 fr), 0.965; in the experiment with A549-Dual [1] (1 µM, irradiation: none) it was 0.945. Moreover, the NF-kB reporter with A549-Dual [1] (3 µM, irradiation: 8 Gy/4 fr) is 0.981; with A549-Dual [1] (3 µM, irradiation: none), 0.935; in the experiment with A549-Dual [1] (10 µM, irradiation: 8 Gy/4 fr) it was 0.949; in the experiment on A549-Dual [1] (10 µM, irradiation: none), 0.932. Besides, the ISRE reporter came to 1.02 with A549-Dual [2] (0.1 µM, irradiation: 8 Gy/4 fr); 1.3 in the experiment with A549-Dual [2] (0.1 µM, irradiation: none); 1.06 in the experiment with A549-Dual [2] (0.3 µM, irradiation: 8 Gy/4 fr); 0.935 in the experiment on A549-Dual [2] (0.3 µM, irradiation: none); 0.97 in the experiment with A549-Dual [2] (1 µM, irradiation: 8 Gy/4 fr); 1.22 in the experiment on A549-Dual [2] (1 µM, irradiation: none). Also, the ISRE reporter with A549-Dual [2] (3 µM, irradiation: 8 Gy/4 fr) turned out to be 1.2; in the experiment on A549-Dual [2] (3 µM, irradiation: none) it was 0.902; with A549-Dual [2] (10 µM, irradiation: 8 Gy/4 fr) it was 1.09; in the experiment with A549-Dual [2] (10 µM, irradiation: none), 1.11.
